Measured values as given in the supplement of paper PMC9927326.
MIC of clinical C. albicans isolates, CLSI broth microdilution (ranges and time not stated); higher = less susceptible. Call: susceptible or wild type [S] / resistant or non-wild type [R] by CLSI breakpoints or epidemiological cut-offs; intermediate and dose-dependent carry no call here (the paper groups them with resistant). '<=' and '>=' mark each drug's lowest and highest value, inferred; the source prints them plain. Isolates are numbered anew.

Columns and labels:
Experiment in all cases: CLSI broth microdilution.
[1] = compound: Nc1[nH]c(=O)ncc1F [flucytosine]
[2] = compound: C[C@@H](c1ncncc1F)[C@](O)(Cn1cncn1)c1ccc(F)cc1F [voriconazole]
[3] = compound: CCC(C)n1ncn(-c2ccc(N3CCN(c4ccc(OCC5COC(Cn6cncn6)(c6ccc(Cl)cc6Cl)O5)cc4)CC3)cc2)c1=O [itraconazole]
[4] = compound: CC[C@@H]([C@H](C)O)n1ncn(-c2ccc(N3CCN(c4ccc(OC[C@@H]5CO[C@@](Cn6cncn6)(c6ccc(F)cc6F)C5)cc4)CC3)cc2)c1=O [posaconazole]
[5] = compound: CCCCCOc1ccc(-c2cc(-c3ccc(C(=O)N[C@H]4C[C@@H](O)[C@@H](O)NC(=O)[C@@H]5[C@@H](O)[C@@H](C)CN5C(=O)[C@H]([C@H](O)CC(N)=O)NC(=O)[C@H]([C@H](O)[C@@H](O)c5ccc(O)c(OS(=O)(=O)O)c5)NC(=O)[C@@H]5C[C@@H](O)CN5C(=O)[C@H]([C@@H](C)O)NC4=O)cc3)no2)cc1 [micafungin]
[6] = compound: CCCCCOc1ccc(-c2ccc(-c3ccc(C(=O)N[C@H]4C[C@@H](O)[C@@H](O)NC(=O)[C@@H]5[C@@H](O)[C@@H](C)CN5C(=O)[C@H]([C@@H](C)O)NC(=O)[C@H]([C@H](O)[C@@H](O)c5ccc(O)cc5)NC(=O)[C@@H]5C[C@@H](O)CN5C(=O)[C@H]([C@@H](C)O)NC4=O)cc3)cc2)cc1 [anidulafungin]
[7] = compound: CC[C@H](C)C[C@H](C)CCCCCCCCC(=O)N[C@H]1C[C@@H](O)[C@@H](NCCN)NC(=O)[C@@H]2[C@@H](O)CCN2C(=O)[C@H]([C@H](O)CCN)NC(=O)[C@H]([C@H](O)[C@@H](O)c2ccc(O)cc2)NC(=O)[C@@H]2C[C@@H](O)CN2C(=O)[C@H]([C@@H](C)O)NC1=O [caspofungin]
[8] = compound: C[C@@H]1[C@H](O)[C@@H](C)/C=C/C=C/C=C/C=C/C=C/C=C/C=C/[C@H](O[C@@H]2O[C@H](C)[C@@H](O)[C@H](N)[C@@H]2O)C[C@@H]2O[C@](O)(C[C@@H](O)C[C@@H](O)[C@H](O)CC[C@@H](O)C[C@@H](O)CC(=O)O[C@H]1C)C[C@H](O)[C@H]2C(=O)O [amphotericin B]
[9] = compound: OC(Cn1cncn1)(Cn1cncn1)c1ccc(F)cc1F [fluconazole]

| Test System | MIC [1] | MIC [2] | MIC [3] | MIC [4] | MIC [5] | MIC [6] | MIC [7] | MIC [8] | MIC [9] |
| --- | --- | --- | --- | --- | --- | --- | --- | --- | --- |
| Candida albicans isolate 150 (Erg11p: D153E, Fur1p: WT, Tac1p: N896S,I558V,A377V,F189S,N174D,M170I,K87N) | 0.12 mg/L [S] | 0.015 mg/L [S] | 0.12 mg/L [S] | 0.06 mg/L [S] | 0.015 mg/L [S] | 0.06 mg/L [S] | 0.06 mg/L [S] | 0.25 mg/L [S] | 1 mg/L [S] |
| Candida albicans isolate 151 (Erg11p: G465S,Y132H, Fur1p: R101C, Tac1p: WT) | ≤ 0.06 mg/L [S] | ≤ 0.008 mg/L [S] | 0.03 mg/L [S] | 0.03 mg/L [S] | 0.03 mg/L [S] | ≤ 0.015 mg/L [S] | 0.03 mg/L [S] | 0.5 mg/L [S] | 0.5 mg/L [S] |
| Candida albicans isolate 152 (Erg11p: G465S,Y132H, Fur1p: R101C, Tac1p: WT) | 0.5 mg/L [S] | 0.12 mg/L [S] | 0.06 mg/L [S] | 0.015 mg/L [S] | 0.015 mg/L [S] | ≤ 0.015 mg/L [S] | 0.03 mg/L [S] | 0.5 mg/L [S] | 2 mg/L [S] |
| Candida albicans isolate 153 (Erg11p: G465S,Y132H, Fur1p: R101C, Tac1p: WT) | 0.12 mg/L [S] | 0.25 mg/L | 0.03 mg/L [S] | 0.015 mg/L [S] | 0.015 mg/L [S] | ≤ 0.015 mg/L [S] | 0.015 mg/L [S] | 0.25 mg/L [S] | 4 mg/L |
| Candida albicans isolate 154 (Erg11p: V488I,E266D, Fur1p: WT, Tac1p: N896S,I895T) | ≤ 0.06 mg/L [S] | ≤ 0.008 mg/L [S] | 0.03 mg/L [S] | 0.03 mg/L [S] | 0.015 mg/L [S] | ≤ 0.015 mg/L [S] | 0.03 mg/L [S] | 0.5 mg/L [S] | 0.5 mg/L [S] |
| Candida albicans isolate 155 (Erg11p: WT, Fur1p: WT, Tac1p: I558V,A377V,F189S,N174D,M170I) | ≤ 0.06 mg/L [S] | ≤ 0.008 mg/L [S] | 0.03 mg/L [S] | 0.015 mg/L [S] | 0.015 mg/L [S] | 0.03 mg/L [S] | 0.03 mg/L [S] | 0.5 mg/L [S] | 0.5 mg/L [S] |
| Candida albicans isolate 156 (Erg11p: V488I,E266D, Fur1p: WT, Tac1p: N896S,L550S) | ≤ 0.06 mg/L [S] | ≤ 0.008 mg/L [S] | 0.03 mg/L [S] | 0.015 mg/L [S] | 0.015 mg/L [S] | 0.06 mg/L [S] | 0.03 mg/L [S] | 0.5 mg/L [S] | 0.25 mg/L [S] |
| Candida albicans isolate 157 (Erg11p: E266D, Fur1p: WT, Tac1p: N896S,A377V,N174D,M170I,I109N,K87N) | ≤ 0.06 mg/L [S] | ≤ 0.008 mg/L [S] | 0.03 mg/L [S] | 0.015 mg/L [S] | ≤ 0.008 mg/L [S] | ≤ 0.015 mg/L [S] | 0.015 mg/L [S] | 0.5 mg/L [S] | 0.25 mg/L [S] |
| Candida albicans isolate 158 (Erg11p: E266D, Fur1p: WT, Tac1p: C908Y,A377V,N174D,M170I,I109N,K87N) | ≤ 0.06 mg/L [S] | 4 mg/L [R] | 0.5 mg/L [R] | 0.25 mg/L [R] | 0.03 mg/L [S] | 0.12 mg/L [S] | 0.06 mg/L [S] | 0.5 mg/L [S] | 128 mg/L [R] |
| Candida albicans isolate 159 (Erg11p: WT, Fur1p: WT, Tac1p: N896S) | ≤ 0.06 mg/L [S] | ≤ 0.008 mg/L [S] | 0.03 mg/L [S] | 0.015 mg/L [S] | ≤ 0.008 mg/L [S] | ≤ 0.015 mg/L [S] | 0.015 mg/L [S] | 0.5 mg/L [S] | 0.25 mg/L [S] |
| Candida albicans isolate 160 (Erg11p: V488I,E266D, Fur1p: WT, Tac1p: M170V,S108N) | ≤ 0.06 mg/L [S] | ≤ 0.008 mg/L [S] | 0.03 mg/L [S] | 0.015 mg/L [S] | 0.015 mg/L [S] | 0.03 mg/L [S] | 0.015 mg/L [S] | 0.5 mg/L [S] | 0.5 mg/L [S] |
| Candida albicans isolate 161 (Erg11p: WT, Fur1p: WT, Tac1p: I558V,A377V,F189S,N174D,M170I,K87N) | ≤ 0.06 mg/L [S] | ≤ 0.008 mg/L [S] | ≤ 0.015 mg/L [S] | ≤ 0.008 mg/L [S] | ≤ 0.008 mg/L [S] | 0.06 mg/L [S] | 0.03 mg/L [S] | 0.25 mg/L [S] | ≤ 0.12 mg/L [S] |
| Candida albicans isolate 162 (Erg11p: K342R, Fur1p: WT, Tac1p: I558V,A377V,F189S,N174D,M170I,K87N) | ≤ 0.06 mg/L [S] | ≤ 0.008 mg/L [S] | 0.03 mg/L [S] | 0.03 mg/L [S] | ≤ 0.008 mg/L [S] | ≤ 0.015 mg/L [S] | 0.03 mg/L [S] | 0.5 mg/L [S] | 0.5 mg/L [S] |
| Candida albicans isolate 163 (Erg11p: D153E, Fur1p: WT, Tac1p: I558V,A377V,F189S,I60V) | ≤ 0.06 mg/L [S] | ≤ 0.008 mg/L [S] | ≤ 0.015 mg/L [S] | 0.015 mg/L [S] | 0.015 mg/L [S] | 0.03 mg/L [S] | 0.03 mg/L [S] | 0.25 mg/L [S] | 0.25 mg/L [S] |
| Candida albicans isolate 164 (Erg11p: E266D, Fur1p: WT, Tac1p: N896S,I558V) | ≤ 0.06 mg/L [S] | 0.015 mg/L [S] | 0.03 mg/L [S] | 0.015 mg/L [S] | 0.015 mg/L [S] | 0.06 mg/L [S] | 0.06 mg/L [S] | 0.25 mg/L [S] | 0.25 mg/L [S] |
| Candida albicans isolate 165 (Erg11p: V488I,H373Y,E266D, Fur1p: WT, Tac1p: N896S,I895T) | ≤ 0.06 mg/L [S] | ≤ 0.008 mg/L [S] | ≤ 0.015 mg/L [S] | ≤ 0.008 mg/L [S] | 0.015 mg/L [S] | ≤ 0.015 mg/L [S] | 0.03 mg/L [S] | 0.25 mg/L [S] | ≤ 0.12 mg/L [S] |
| Candida albicans isolate 166 (Erg11p: Y132H,T123I, Fur1p: R101C, Tac1p: WT) | ≤ 0.06 mg/L [S] | ≥ 8 mg/L [R] | 0.5 mg/L [R] | 1 mg/L [R] | 0.03 mg/L [S] | 0.12 mg/L [S] | 0.03 mg/L [S] | 1 mg/L [S] | ≥ 256 mg/L [R] |
